Here are results for 20 variants from the RNAGym collection of RNA variant scans (doi:10.7554/elife.90254).

First the molecules themselves.
B1: LINE1-full (parent)
chain: UACGUAGGUGGUUUUCCCCUGAUAGUGCUAAGGGGGCCUGGAAGUUUGGACUGGGCAGAGCUCAACACAGCGUGGCAAAGUGGCUGUGGCUAGACUGCCUCUCUGGAUUCCUCGUCACUCAGCAGGGCAUCUCUGAGAGAAAUGCC

Read counts are not given, so values of variants with three or more changes are uncertain.

The variants in the series derive from B1. The series can be described thus: self-cleavage, relative activity (ratio to wild type); higher = more cleavage; in vitro, sequencing; the parent is a self-cleaving ribozyme.
As to UACGUAGGUGGUUCUCCCCUGAUAGUGCUAAGGGGGCCUGGAAGUUUGGACUGGGCAGAGCUCAACACAGCGUGGCAAGGUGGCUGUGGCUAGACUGCCUCUCUGGAUUCCUCGUCACUCAGCAGGGCAUCUCAGAGAGAAAUGCC [U14C A79G U134A], the self-cleavage turned out to be 0.84.

Regarding UACGUAGGUGGUUCUCCCCUGAUAGUGCUAAGGGGGCCUGGAAGUUUGGACUGGGCAGAGCUCAACACAGCGUGGCAAGGUGGCUGUGGCUAGACUGCCUCUCUGGAUUCCUCAUCACUCAGCAGGGCAUCUCUGAGAGAAAUGAC [U14C A79G G114A C145A], the self-cleavage was 0.89. The same measure for UACGUAGGUGGUUCUCCCCUGAUAGUGCUAAGGGGGCCUGGAAGUUUGGACUGGGCAGAGCUCAACACAGCGUGGCAAAGUGGUUGUGGCUAGACUGCCUCUCUGGAUUCCUCGUCACUCAGCAGGGCAUCCCUGAGAGAAAUGCC [U14C C84U U132C]: 0.15.

For UACGUAGGUGGUUCUCCCCUGAUAGUGCUAAGGGGGCCUGGAAGUUUGGACUGGGCAGAGCUCAACACAGCGUGGCAGAGUGGCUGUGGCUAGACAGCCUCUCUGGAUUCCUCGUCACUCAGCAGGGCAUCUCUGUGAGAAAUGCC [U14C A78G U96A A136U], the self-cleavage stood at 0.08.

In the case of UACGUAGGUGGUUCUCCCCUUAUAGUGCUAAGGGGGCCUGGAAGUUUGGCCUGGGCAGAGCUCAACACAGCGUGGCAAAGUGGCUGAGGCUAGACUGCCUCUCUGGAUUCCGCGUCUCUCAGCAGGGCGUCUCUGAGAGAAAUGCC [U14C G21U A50C U87A U112G A117U A129G], the self-cleavage came out at 0. The same measure for UACGUAGGUGGUUCUCCCCUGAUAGUGCUAAGGGGGCCUGGAAGUUUGGACUGGGCAGAGCUCAACACAGCGUGGCAGAGUGGCUGAGGCUAGACUGCCUCUCUGGAUUCCUCGUCACUCAGCAGGGCAUCUCUGAGAGAGAUGCC [U14C A78G U87A A141G]: 0.16; for UACGUAGGUGGUUCUCCCCUGAUAGUGCUAAGGGGGCCUGGAAGUUUGGACUGGGCAGAGCUCAACACAGCGUGGCAUAGUGGCUGUGGCUAGACUGCCUCUCUGGAUCCCUCGUCACUCAGCAGGGCAUCUCCGAGAGAAAUGCC [U14C A78U U109C U134C]: 1.92; for UACGUAGGUGGUUCUCCCUUGAUAGUGCUAAGGGGGCCUGGAAGUUUGGACUGGGCAGAGCCCAACACAGCGUGGCAAAGUGGCUGUGGCUAGACUGCCUCUCUGGAUUCCUCGUCACUCAGCAGGGCAUCUCUGAGAGAAAUGCC [U14C C19U U62C]: 0.1.

As to UACGUAGGUGGUUCUCCCCUGAUAGUCCUAAGGGGGCCUGGAAGUUUGGACUGGGCAGAGCUCAACUCAGCGUGGCAAAGUGGCUGUGGCUAGACUGCCUCUCUGGAUUCCUCGUCACUCAGCAGGGCAUCUCUGAGAGGAAUGCC [U14C G27C A67U A140G], the self-cleavage came out at 0.13. UACGUAGGUGGUUCUCCCCUGAUAGUGCUAAGGGGGCCUGGAAGUUUGGACUGGGCAGAGCUCAACACAGCGUGGCAAAGUGGCUGUGGCUUGACUGCCUCUCUGGAUUCCUUGUCACUCAGCAGGGCAUCUCUGAGAGAAAUGCC [U14C A92U C113U]: the self-cleavage stood at 0.33. As for UACGUAGGUGGUUCUCCCCUGAUAGUGCUAAGGGGGCCUGGAAGUUUGGACUGGGCAGAGCUCAACACAGCGUGGCAAAGUGGCUGUGGCUAGACUGCCUCUCUGGAUUCCUCGUCACUCAGCUGGGCGUCUCUGAGAGAAAUGCC [U14C A124U A129G], the self-cleavage was determined as 2.3. The same measure for UACGUAGGUGGUUCUCCCCUGAUAGUGCUAAGGGGGCCUGGAAGUUUGGACUGGGCAGAGCUCAACACAGCGUGGCAUAGUGGCUGUGGCUAGUCUGCCUCUCUGGAUUCCUCGUCACUCAGCAGGGCAUCUCUGAGAGAGAUGCC [U14C A78U A94U A141G]: 0.53; for UACGUAGGUGGUUCUCCCCUGAUAGUGCUAAGGGGGCCUGGAAGUUUGGAUUGGGCAGAGCUCAACACAGCGUGGCAAAGUGGCUGUAGCUAGACUGCCUCUCUGGAUUCCUCGUCACUCAGCAGGGCAUCUCUGAGGGAAAUGCC [U14C C51U G88A A138G]: 0.06. The same measure for UACGUAGGUGGUUCUCCCCUGAUAGUGCUAAGGGGGACUGGGAGUUUGGACUGGGCAGAGCUCAACACAGCGUGGCAAAGUGGCUGUGGCUAGACUGCCUCUCUGGAUUCCUCGUCACUCAGCAGGGCAUCUCUGAGAGAAAUGCC [U14C C37A A42G]: 1.09; for UACGUAGGUGGUUCUCCCCUGAUAGUGCUAAGGGGGCCUGGAAGUUUGGACUGGGCAGAGCUCAACACAGCGUGGCAGAGUGGCUGUGGCUAGACUGCCACUCUGGACUCCUCGUCACUCAGCAGGGCAUCUCUGAGAGAAGUGCC [U14C A78G U100A U108C A142G]: 0.3. For UACGUAGGUGGUUCUCCCCUGAUAGUGCUAAGGGGGCCUGGAAGUUUGGACUGGGUAGAGCUCAACACAGUGUGGCAAAGUGGCUGUGGCUAGACUGCCUCUCUGGAUUCCUCGUCACUCAGCAGGGCAUCUCUGAGAGAAAUGCC [U14C C56U C71U], the self-cleavage was 0.1. To UACGUAGGUGGUUCUCCCCUGAUAGUGCUAAGGGGGCCUGGAAGUUUGGACUGGGCAGAGCUCAACACAGCGUGGCAAUGUGGCUGUGGCUAGGCUGCCUCUCUGGAUUCCUCGUCACCCAGCAGGGCAUCUCUGAGAGAAAUGCC [U14C A79U A94G U119C] belongs 0.53. As for UACGUAGGUGGUUCUCCCCUGAUAAUGCUAAGGGGGCCUGGAAGUUUGGACUGGGCAGAGCUCAGCACAGCGUGGCGAAGUGGCUGUGGCUAGACUGCCUCUCUGGAUUCCUCGUCACUCAGCAGGGCAUCUCUGGGAGAAAUGCC [U14C G25A A65G A77G A136G], the self-cleavage is 0.

As to UACGUAGGUGGUUCUCCCCUGAUAGUGCUAAGGGGGCCUGGAAGUUUGGACUGGGCAGAGCUCAACACAGAGUGGCAAAGUGGCCGUGGCUAGACUGCCUCUCUGGAUUCCUCGUCACUCAGCAGGGCAUCUCUGAGAGAGAUGCC [U14C C71A U85C A141G], the self-cleavage is 0.04. UACGUAGGUGGUUCUCCCCUGAUAGUGCUAAGGGGGCCUGGAAGUUUGGACUGGGCAGAGCUCAACACAGCGUGGCAAAGUGGCUGUGGCUAGACUGCCUCUCUGGAUUCCUCGUCACUCAGCAGGGCGUCUCUGAGAGUAAUGCC [U14C A129G A140U]: the self-cleavage worked out at 1.86.
